Data from the supplement of paper PMC4967469.
pIC50: −log10 of the molar value. Lines with a small IC50 respond at low doses; a fit beyond the top or the lowest dose is shown as a bound at that dose. For AUC the same curve is integrated over the 256-fold range of doses and scaled to a fraction; values near 1 show little effect. For some of these results: Where the top dose is marked as inferred, it is not printed in the source and was worked back from the curve model. For some of these results: Where an entry number is given, a second screen of the drug exists; the two often differ.

Experiments:
Experiment in all cases: Viability of human cancer cell lines after 72 h of drug (GDSC screen)
AS601245 = compound: N#CC(c1ccnc(NCCc2cccnc2)n1)c1nc2ccccc2s1 [AS601245]; settings: top dose 8 µM; top dose inferred
Method: (§1)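 Human cancer cell lines in 384-well plates, medium with 10% serum, drug for 72 h over a 256-fold dose range (nine 2-fold or five 4-fold steps up to the top dose). Adherent lines were fixed and stained with the nucleic acid dye Syto60, suspension lines read with resazurin; signal relative to control wells, capped at 0 and 100%. One two-parameter sigmoid per drug and line, fitted in a mixed model over all curves with the slope shared within a line.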

EX-527 = compound: NC(=O)C1CCCc2c1[nH]c1ccc(Cl)cc21 [EX-527]; settings: top dose 20 µM
Method: as §1

AZ628 = compound: Cc1ccc(NC(=O)c2cccc(C(C)(C)C#N)c2)cc1Nc1ccc2ncn(C)c(=O)c2c1 [AZ628]; settings: top dose 4 µM; top dose inferred
Method: as §1

AZD6244 = compound: Cn1cnc2c(F)c(Nc3ccc(Br)cc3Cl)c(C(=O)NOCCO)cc21 [AZD6244]; settings: top dose 4 µM; screen: GDSC drug entry 1498; top dose inferred
Method: as §1

YM201636 = compound: Nc1ccc(C(=O)Nc2cccc(-c3nc(N4CCOCC4)c4oc5ncccc5c4n3)c2)cn1 [YM201636]; settings: top dose 5.12 µM; top dose inferred
Method: as §1

## EoL-1-cell (haematopoietic neoplasm, suspension)
AS601245
  AUC: 0.74
  pIC50: 5.66
EX-527
  AUC: 0.886
  pIC50: 4.75
AZ628
  AUC: 0.906
  pIC50: < 5.40
AZD6244
  AUC: 0.752
  pIC50: 5.92
YM201636
  AUC: 0.824
  pIC50: 5.59

## Farage (B-cell lymphoma, suspension)
AS601245
  AUC: 0.844
  pIC50: 5.37
EX-527
  AUC: 0.993
  pIC50: < 4.70
AZ628
  AUC: 0.955
  pIC50: < 5.40
AZD6244
  AUC: 0.992
  pIC50: < 5.40
YM201636
  AUC: 0.399
  pIC50: 6.75

## GB-1 (glioma, adherent)
AS601245
  AUC: 0.898
  pIC50: < 5.10
EX-527
  AUC: 0.792
  pIC50: 4.96
AZ628
  AUC: 0.858
  pIC50: < 5.40
AZD6244
  AUC: 0.953
  pIC50: < 5.40
YM201636
  AUC: 0.886
  pIC50: < 5.29

## GDM-1 (acute myeloid leukaemia, suspension)
AS601245
  AUC: 0.843
  pIC50: 5.28
EX-527
  AUC: 0.976
  pIC50: < 4.70
AZ628
  AUC: 0.293
  pIC50: 7.17
AZD6244
  AUC: 0.927
  pIC50: < 5.40
YM201636
  AUC: 0.683
  pIC50: 6.00

## GI-1 (glioma, adherent)
AS601245
  AUC: 0.765
  pIC50: 5.55
EX-527
  AUC: 0.976
  pIC50: < 4.70
AZ628
  AUC: 0.891
  pIC50: < 5.40
AZD6244
  AUC: 0.911
  pIC50: < 5.40
YM201636
  AUC: 0.902
  pIC50: < 5.29

## GI-ME-N (neuroblastoma, adherent)
AS601245
  AUC: 0.927
  pIC50: < 5.10
EX-527
  AUC: 0.974
  pIC50: < 4.70
AZ628
  AUC: 0.601
  pIC50: 6.28
AZD6244
  AUC: 0.644
  pIC50: 6.14
YM201636
  AUC: 0.822
  pIC50: 5.34

## GOTO (neuroblastoma, adherent)
AS601245
  AUC: 0.928
  pIC50: < 5.10
EX-527
  AUC: 0.982
  pIC50: < 4.70
AZ628
  AUC: 0.869
  pIC50: < 5.40
AZD6244
  AUC: 0.974
  pIC50: < 5.40
YM201636
  AUC: 0.833
  pIC50: 5.40

## GR-ST (lymphoblastic leukaemia, suspension)
AS601245
  AUC: 0.839
  pIC50: 5.14
EX-527
  AUC: 0.972
  pIC50: < 4.70
AZ628
  AUC: 0.878
  pIC50: < 5.40
AZD6244
  AUC: 0.977
  pIC50: < 5.40
YM201636
  AUC: 0.714
  pIC50: 5.83

## GRANTA-519 (B-cell lymphoma, suspension)
AS601245
  AUC: 0.98
  pIC50: < 5.10
EX-527
  AUC: 0.988
  pIC50: < 4.70
AZ628
  AUC: 0.982
  pIC50: < 5.40
AZD6244
  AUC: 0.99
  pIC50: < 5.40
YM201636
  AUC: 0.953
  pIC50: < 5.29

## GT3TKB (stomach, adherent)
AS601245
  AUC: 0.828
  pIC50: 5.38
EX-527
  AUC: 0.985
  pIC50: < 4.70
AZ628
  AUC: 0.974
  pIC50: < 5.40
AZD6244
  AUC: 0.757
  pIC50: 5.91
YM201636
  AUC: 0.984
  pIC50: < 5.29

## H9 (lymphoid neoplasm, suspension)
AS601245
  AUC: 0.932
  pIC50: < 5.10
EX-527
  AUC: 0.991
  pIC50: < 4.70
AZ628
  AUC: 0.765
  pIC50: 5.91
AZD6244
  AUC: 0.671
  pIC50: 6.17
YM201636
  AUC: 0.876
  pIC50: 5.44

## H-EMC-SS (chondrosarcoma, adherent)
AS601245
  AUC: 0.865
  pIC50: < 5.10
EX-527
  AUC: 0.974
  pIC50: < 4.70
AZ628
  AUC: 0.783
  pIC50: 5.65
AZD6244
  AUC: 0.542
  pIC50: 6.47
YM201636
  AUC: 0.848
  pIC50: < 5.29

## HA7-RCC (kidney, adherent)
AS601245
  AUC: 0.874
  pIC50: < 5.10
EX-527
  AUC: 0.983
  pIC50: < 4.70
AZ628
  AUC: 0.985
  pIC50: < 5.40
AZD6244
  AUC: 0.878
  pIC50: < 5.40
YM201636
  AUC: 0.774
  pIC50: 5.65

## HAL-01 (lymphoblastic leukaemia, suspension)
AS601245
  AUC: 0.869
  pIC50: 5.22
EX-527
  AUC: 0.989
  pIC50: < 4.70
AZ628
  AUC: 0.851
  pIC50: 5.60
AZD6244
  AUC: 0.908
  pIC50: < 5.40
YM201636
  AUC: 0.842
  pIC50: 5.52

## HC-1 (hairy cell leukaemia, suspension)
AS601245
  AUC: 0.858
  pIC50: 5.21
EX-527
  AUC: 0.984
  pIC50: < 4.70
AZ628
  AUC: 0.95
  pIC50: < 5.40
AZD6244
  AUC: 0.903
  pIC50: < 5.40
YM201636
  AUC: 0.823
  pIC50: 5.54

## HCC1187 (breast, suspension)
AS601245
  AUC: 0.722
  pIC50: 5.69
EX-527
  AUC: 0.985
  pIC50: < 4.70
AZ628
  AUC: 0.896
  pIC50: < 5.40
AZD6244
  AUC: 0.972
  pIC50: < 5.40
YM201636
  AUC: 0.919
  pIC50: < 5.29

## HCC1500 (breast, adherent)
AS601245
  AUC: 0.889
  pIC50: < 5.10
EX-527
  AUC: 0.986
  pIC50: < 4.70
AZ628
  AUC: 0.937
  pIC50: < 5.40
AZD6244
  AUC: 0.973
  pIC50: < 5.40
YM201636
  AUC: 0.976
  pIC50: < 5.29

## HCC2157 (breast, suspension)
AS601245
  AUC: 0.872
  pIC50: < 5.10
EX-527
  AUC: 0.987
  pIC50: < 4.70
AZ628
  AUC: 0.944
  pIC50: < 5.40
AZD6244
  AUC: 0.983
  pIC50: < 5.40
YM201636
  AUC: 0.987
  pIC50: < 5.29

## HCC2218 (breast, suspension)
AS601245
  AUC: 0.941
  pIC50: < 5.10
EX-527
  AUC: 0.979
  pIC50: < 4.70
AZ628
  AUC: 0.983
  pIC50: < 5.40
AZD6244
  AUC: 0.981
  pIC50: < 5.40
YM201636
  AUC: 0.857
  pIC50: < 5.29

## HCC2998 (large intestine, adherent)
AS601245
  AUC: 0.744
  pIC50: 5.61
EX-527
  AUC: 0.988
  pIC50: < 4.70
AZ628
  AUC: 0.504
  pIC50: 6.59
AZD6244
  AUC: 0.34
  pIC50: 7.04
YM201636
  AUC: 0.963
  pIC50: < 5.29

## HD-MY-Z (Hodgkin lymphoma, adherent)
AS601245
  AUC: 0.88
  pIC50: < 5.10
EX-527
  AUC: 0.981
  pIC50: < 4.70
AZ628
  AUC: 0.795
  pIC50: 5.73
AZD6244
  AUC: 0.728
  pIC50: 5.95
YM201636
  AUC: 0.646
  pIC50: 6.09

## HDLM-2 (Hodgkin lymphoma, suspension)
AS601245
  AUC: 0.875
  pIC50: 5.12
EX-527
  AUC: 0.988
  pIC50: < 4.70
AZ628
  AUC: 0.964
  pIC50: < 5.40
AZD6244
  AUC: 0.976
  pIC50: < 5.40
YM201636
  AUC: 0.989
  pIC50: < 5.29

## HEL (acute myeloid leukaemia, semi-adherent)
AS601245
  AUC: 0.848
  pIC50: 5.35
EX-527
  AUC: 0.989
  pIC50: < 4.70
AZ628
  AUC: 0.957
  pIC50: < 5.40
AZD6244
  AUC: 0.989
  pIC50: < 5.40
YM201636
  AUC: 0.845
  pIC50: 5.55

## HOP-62 (lung adenocarcinoma, adherent)
AS601245
  AUC: 0.844
  pIC50: 5.24
EX-527
  AUC: 0.987
  pIC50: < 4.70
AZ628
  AUC: 0.877
  pIC50: < 5.40
AZD6244
  AUC: 0.777
  pIC50: 5.80
YM201636
  AUC: 0.837
  pIC50: 5.47

## HSC-39 (stomach, suspension)
AS601245
  AUC: 0.984
  pIC50: < 5.10
EX-527
  AUC: 0.975
  pIC50: < 4.70
AZ628
  AUC: 0.951
  pIC50: < 5.40
AZD6244
  AUC: 0.972
  pIC50: < 5.40
YM201636
  AUC: 0.989
  pIC50: < 5.29
